The RNAGym collection of RNA variant scans (doi:10.1093/nar/gkz1192)
The source gives no read counts; variants with many changes may rest on few reads.

B1: CPEB3 Ribozyme (parent)
chain: UAACAGGGGGCCACAGCAGAAGCGUUCACGUCGCAGCCCCUGUCAGAUUCUGGUGAAUCUGCGAAUUCUGCUGUAUAUCUC

Variants of: B1
Test: self-cleavage, relative activity (ratio to wild type); higher = more cleavage; in vitro, sequencing
Outline: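 CPEB3 self-cleaving ribozyme mutant libraries were made by rounds of error-prone PCR, barcoded, and transcribed in vitro with T7 RNA polymerase for 5 hours at 37°C. Cleavage occurred during transcription and a 15 min DNase I step before EDTA stop. RNAs were reverse transcribed with template switching and Illumina-sequenced, with DNA sequencing mapping barcodes to variants. Relative activity is the variant's cleaved/total read fraction divided by wild type's (minimum 5 reads), averaged across three batches.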
In the case of UAACAGGGGGCCACAGCAGAAGCGUUCACGCCGCAGCCCCUGUCAGACUCUGGUGAAUCUGCGGAUUCUGCUGCAUAUCUC, the self-cleavage is reported as 0.54.
With UAACAGGGGGCCACAGCAGAAGCGUUCACGCCGCAGCCCCUGUCAGACUCAGGUGAAUCUGCGAAUUCUGCUGUAUAUCUC the self-cleavage was 0.21.
For UAACAGGGGGCCACAGCAGAAGCGUUCACGCCGCAGCCCCUGUCAGACUCAGGUGGAUCUGCGAAUUCUGCUGUAUAUCUC, the self-cleavage was 0.1.
For UAACAGGGGGCCACAGCAGAAGCGUUCACGCCGCAGCCCCUGUCAGACUCCGGAGAACCUGCGUAUUCUGCUGUAUGUCUC, the self-cleavage was 0.1.
For UAACAGGGGGCCACAGCAGAAGCGUUCACGCCGCAGCCCCUGUCAGACUCUGGUGAAUCCGCGAAUUCUGCUGUAUAUCUC, the self-cleavage was 0.2.
In the case of UAACAGGGGGCCACAGCAGAAGCGUUCACGCCGCAGCCCCUGUCAGACUCUGGUGAAUCUGCGAAUUCUGCAGUAUAUCUC, the self-cleavage is reported as 0.46.
UAACAGGGGGCCACAGCAGAAGCGUUCACGCCGCAGCCCCUGUCAGAGUCUGGUGAAUCUGCGAAUUCUGCUGCAUAUCUC gave a self-cleavage of 0.51.
For UAACAGGGGGCCACAGCAGAAGCGUUCACGCCGCAGCCCCUGUCAGAUACCGGUGGAUCUGCGAAUCCUGCUGUAUAACUC, the self-cleavage was 0.2.
Variant UAACAGGGGGCCACAGCAGAAGCGUUCACGCCGCAGCCCCUGUCAGAUACUGGAGAAUCUGCGGAUUCUGCUGUAUAUCUC has a self-cleavage of 0.13.
Variant UAACAGGGGGCCACAGCAGAAGCGUUCACGCCGCAGCCCCUGUCAGAUCCUGGUGGAUCUGCGAAUUCUGCUGUAUAUCUC has a self-cleavage of 0.73.
With UAACAGGGGGCCACAGCAGAAGCGUUCACGCCGCAGCCCCUGUCAGAUCCUGGUGAAUCUGCGAAAUCUGCUGUAUAUCUC the self-cleavage was 0.15.
For UAACAGGGGGCCACAGCAGAAGCGUUCACGCCGCAGCCCCUGUCAGAUCCUGGUGAAUCUGCGAAUCCUGCUGCAUAUCUC, the self-cleavage was 0.11.
Variant UAACAGGGGGCCACAGCAGAAGCGUUCACGCCGCAGCCCCUGUCAGAUCCUGGUGAAUCUGCGAAUUCCGCUGUAAAUCUC has a self-cleavage of 0.17.
UAACAGGGGGCCACAGCAGAAGCGUUCACGCCGCAGCCCCUGUCAGAUCCUGGUGAAUCUGCGAAUUCUGCAGUAUAUCUC gave a self-cleavage of 0.12.
With UAACAGGGGGCCACAGCAGAAGCGUUCACGCCGCAGCCCCUGUCAGAUGCUGGACAAUCUGCGAAUUCUGCUGUAUAUCUC the self-cleavage was 0.42.
Work on UAACAGGGGGCCACAGCAGAAGCGUUCACGCCGCAGCCCCUGUCAGAUGCUGGUGAAUCUGCGAAUUCUGCUGCAUAUCUC yielded a self-cleavage of 0.47.
Variant UAACAGGGGGCCACAGCAGAAGCGUUCACGCCGCAGCCCCUGUCAGAUGCUGGUGAAUCUGCGAAUUCUGCUGUAUAACUC has a self-cleavage of 0.29.
UAACAGGGGGCCACAGCAGAAGCGUUCACGCCGCAGCCCCUGUCAGAUUCAGGUGAAUCUGCGAAUUCUGCUGUGUAUCUC showed a self-cleavage of 0.76.
In the case of UAACAGGGGGCCACAGCAGAAGCGUUCACGCCGCAGCCCCUGUCAGAUUCAGUUGAAUCUGCGAAUUCUGAUGUACACCUC, the self-cleavage is reported as 0.31.
For UAACAGGGGGCCACAGCAGAAGCGUUCACGCCGCAGCCCCUGUCAGAUUCAGGUGAAUCCGCGAAUUCUGCUGUAUAUCUC, the self-cleavage was 0.13.
Variant UAACAGGGGGCCACAGCAGAAGCGUUCACGCCGCAGCCCCUGUCAGAUUCAGGUGAAUCUGCGAAUUCUGCCGUAUAUCCC has a self-cleavage of 0.86.
UAACAGGGGGCCACAGCAGAAGCGUUCACGCCGCAGCCCCUGUCAGAUUCCGGUGAAUCUGCGGAUUCUGCUGUAUAUCAC gave a self-cleavage of 0.38.
Variant UAACAGGGGGCCACAGCAGAAGCGUUCACGCCGCAGCCCCUGUCAGAUUCCGGUGAAUCUGCCAAUUCUGCUGUAUAUCUC has a self-cleavage of 0.48.
With UAACAGGGGGCCACAGCAGAAGCGUUCACGCCGCAGCCCCUGUCAGAUUCCGGUGAAUCUGCGAAAUCUGCUGUAUAUCUC the self-cleavage was 0.21.
In the case of UAACAGGGGGCCACAGCAGAAGCGUUCACGCCGCAGCCCCUGUCAGAUUCCGGUGAAUCUGCGAAUACUGCUGUAUAUCUC, the self-cleavage is reported as 0.31.
UAACAGGGGGCCACAGCAGAAGCGUUCACGCCGCAGCCCCUGUCAGAUUCUGGAGAAUCUGCGAGUUCUGCUGUAUUUCUC gave a self-cleavage of 0.47.
UAACAGGGGGCCACAGCAGAAGCGUUCACGCCGCAGCCCCUGUCAGAUUCUGGAGAAUCUGCGAGUUCUGCUGUAUAUCCC gave a self-cleavage of 0.33.
UAACAGGGGGCCACAGCAGAAGCGUUCACGCCGCAGCCCCUGUCAGAUUCUGGAGAAUCUGAGAAUUCUGCUGUAUAUCUC showed a self-cleavage of 0.44.
With UAACAGGGGGCCACAGCAGAAGCGUUCACGCCGCAGCCCCUGUCAGAUUCUGGAGAAUCAGCGAAUUCUGCUGUAUAUCUC the self-cleavage was 0.24.
With UAACAGGGGGCCACAGCAGAAGCGUUCACGCCGCAGCCCCUGUCAGAUUCUGGCGAACCUGCGAAUUCUGCUGGAUAUCUC the self-cleavage was 0.3.
In the case of UAACAGGGGGCCACAGCAGAAGCGUUCACGCCGCAGCCCCUGUCAGAUUCUGGCGAAUCAGCGAAUUCUGCUCUAUAUCUC, the self-cleavage is reported as 0.68.
Work on UAACAGGGGGCCACAGCAGAAGCGUUCACGCCGCAGCCCCUGUCAGAUUCUGGCGAAUCUGCGAAUACUGCUGUAUAUCUC yielded a self-cleavage of 0.22.
With UAACAGGGGGCCACAGCAGAAGCGUUCACGCCGCAGCCCCUGUCAGAUUCUGGCGAAUCUGCGAAUUCUGCAGUAUAUCUC the self-cleavage was 0.53.
UAACAGGGGGCCACAGCAGAAGCGUUCACGCCGCAGCCCCUGUCAGAUUCUGGCGAAUCUGCGAAUUCUGCCGUAUAUCUC showed a self-cleavage of 1.2.
